Whole data set: some 33,000 sequences, median “E-score (-0.5 to 0.5)” near -0.016, cut for the highest 2% near 0.31. The list shows a part of the results.
molecular target: Cst6 (UniProt P40535); assay: PBM E-score (8-mer binding enrichment) (E-score (-0.5 to 0.5)); higher = stronger / more preferred TF binding; most listed sequences are background and not binding sites; conditions: protein concentration: 200 nM; construct: GST-DNA-binding domain
Method in brief: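 Bound GST-tagged yeast transcription factors, applied at about 100-200 nM to double-stranded universal all-10-mer Agilent arrays, were detected with fluorescent anti-GST. Scans were normalised with masliner. A modified Wilcoxon-Mann-Whitney statistic, the E-score, was assigned to each ungapped eight-base word pooled with its reverse complement by the Universal PBM Analysis Suite.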

Sequence	PBM E-score
CTGTTATA	0.221
ACGACGAG	-0.211
AAGCTATT	0.0317
AACAAACA	0.199
GCCAACGA	-0.176
AAATTTAG	0.144
CCGGAGCG	-0.0828
CAACGGGC	-0.0486
CCTGCGTC	-0.127
GATGTTCA	-0.0673
GACGGTCC	-0.359
ACAAGTTG	-0.0486
GGTAAGCA	-0.116
ACGGGTTG	-0.154
ATGGGCGC	-0.0682
TCTGTTAA	0.0556
AAACCCCT	-0.297
ATTAGAAC	0.158
ACATGAGA	0.0628
AGCACGCA	-0.189
ACTACGCT	-0.0196
TGCATCCA	-0.0788
TCAGGGCA	-0.0741
CTACGCCA	-0.0436
CCGAAGTC	-0.129

Sequence	PBM E-score
GCACACCC	-0.192
ACCATTCG	-0.138
CGTAAGTC	0.171
ATTGCAAA	0.0862
CGTTAATA	0.0725
ATTAAGTA	0.0699
GGGACAAC	-0.158
CGGTTAGC	-0.122
CAATCAGG	0.0861
TATGACAA	0.25
GACTGTCC	-0.324
CAAGCTTA	-0.0191
GCCGGCCC	-0.206
GGGAAAAC	-0.0343
CAGCTACA	-0.112
GCCTTGCC	-0.0124
GACTAAGC	-0.196
AATCTGAG	-0.0919
CTTTAAAA	0.177
GTGCCCAA	-0.0335
GAGTATAC	0.0608
CAATACGA	0.12
ACGGTCTG	-0.189
ATCTACAT	0.137
GGGTACGA	-0.141

Sequence	PBM E-score
CCCACTTC	-0.126
ATATCCAG	0.0917
ATAATCCA	0.0556
ATAGGGAG	-0.295
CCGGTCGA	-0.317
AAACATAA	0.222
TAAACATA	0.231
GCACCGGC	-0.181
TACAAGTA	0.132
ATCCTACG	-0.0692
CGTGCCGA	0.048
AGGGCGTA	0.0518
CGGTAGGA	-0.15
GACCCTGC	-0.322
AGGGATAA	0.0215
GCCGCCGA	0.0801
ATTCACGA	0.128
ATTTGTTG	0.232
ACTAGTCT	-0.127
AATGGAGA	-0.0892
AGGCAAAG	-0.0371
CCAAAGTA	0.00372
AGGCTGAG	-0.00996
CAAACCAC	0.0932
ACATCAAT	0.288

Sequence	PBM E-score
GAAGTTAA	-0.0798
CAACATCC	-0.231
CGACAAGC	-0.178
CGCTGTGC	-0.0643
CCGGGAGC	-0.322
AGGGACCT	-0.157
ATGATCTG	0.231
AAATACAT	0.0549
ACAACTGC	-0.0164
ATGGAAAA	0.135
ACCTCCAA	-0.107
ACGGGTCA	-0.0243
CCTGATCG	0.014
TCCTGCCA	-0.265
GAGCTAAA	-0.0615
AAATTGAT	0.154
ATTTGTGA	0.146
GGACAAAC	-0.0601
ATCAATGC	0.104
AACATCCA	0.00499
GAAAAGGA	-0.00557
ATAGCCAG	-0.0314
AATAACAC	0.128
GACCAAGC	-0.134
AAACCCAG	-0.186

Sequence	PBM E-score
ACATCAAC	0.285
CCACCAAG	-0.296
TATAGGAA	0.149
GACTCACC	-0.183
GCCACTCA	0.00443
CTTCGAAC	0.0385
GTATCAGA	0.00532
GGACTGCA	-0.135
CAGTTGTC	-0.0348
GACTAGAA	0.0542
CTTGGGTA	-0.0581
ATCGGCGG	0.0115
CGGACCCC	-0.236
ACATCAGC	0.116
ATTTGGGA	-0.037
ACGTGCCT	0.0986
ATCTTCGG	0.148
GTTACAAC	0.15
AAACTAAT	0.241
ATCCCATC	-0.191
AGCCTGCG	-0.34
GTCCCCAC	-0.401
GAGTGGTA	-0.108
ATGTCAAT	0.26
AATCGAAC	0.00099

Sequence	PBM E-score
TAACGACA	0.0912
GTAGCTCA	-0.0993
ATCAAAGA	0.0532
GATTCGGC	0.0498
CCCTAGAG	-0.22
GCCTATCC	-0.148
GGATAACA	-0.0581
ACGTTCAA	0.108
AGCATGTC	-0.108
ATATTAGG	0.0359
AGGATGGA	-0.164
AGTACCCC	-0.27
ATTGCAAT	0.152
ATCGACAA	0.0192
ATGGAGGA	-0.0428
CTGAGCGA	-0.0721
AGGGCGCA	-0.0682
GAGGCCTA	-0.256
CACGTATC	0.0838
CAGGGTCA	-0.298
ACAATCCG	-0.0106
GGTAAAAC	0.0436
GGAGAACA	-0.076
CAAACCTG	0.0584
CTAGCAAG	-0.177

Sequence	PBM E-score
CAGAGAGA	-0.165
ATAACTGG	-0.161
GAAGGAGA	0.0368
AAATCCAA	0.125
CAGTGCCG	0.172
GCAGATTA	0.103
AATTATTC	0.219
CGGGGTAG	-0.199
AGCTAAGG	-0.205
ACCACCAC	0.0158
AGAAATTC	0.0131
AAATCGCA	0.122
CCTTGTGA	0.159
CGCTGCCC	-0.214
CGGTTTCA	-0.013
CAAGGTGG	-0.161
CACAACGA	0.116
CAATAAAA	0.165
CCGGCTGC	-0.102
AATCTCTG	-0.0578
AGAGAGAA	0.0541
AAAAGGCC	-0.135
CTGATGGA	-0.0729
AGTCTGAA	-0.0104
ACGCCTTG	0.213

Sequence	PBM E-score
AAAGCTTT	-0.0211
AAAACAGT	0.0923
ACAGCCCG	-0.229
ATAGTCTC	0.0392
AGTACGGA	0.00821
ACTCAGAC	-0.0358
AGGACAAT	-0.0178
ATGCATTA	0.255
GATAGCAA	0.181
ACTGAGCC	0.0371
CCGTTATA	-0.00095
ACACAGAG	-0.0396
GAGTCAGA	0.0485
AACTCCGA	-0.117
ACTAACAG	0.13
CCAATTAA	0.03
AAAAACGG	0.0517
AGTGTTAA	0.188
AGAGGAAA	0.0703
CTGTAGAA	0.0216
CTCGCGTA	0.00147
GATGTGGC	-0.0719
GTGTACCA	-0.0412
CCAGGACC	-0.313
ATTCACTA	0.104

Sequence	PBM E-score
TATATCGA	0.221
GAGCGGAC	-0.313
CCAACCCC	-0.0875
ACCATTAC	0.143
CAACGTGG	-0.0306
TGCACCCA	-0.118
CGAAAGCA	-0.0132
GACTTCTC	-0.119
CATTGTCA	0.115
ATAGGGTC	-0.232
AGGTAGAC	-0.192
ACTGTGCC	0.03
AAGATCCG	-0.0741
GGTTTAGA	-0.0452
CTAACGAC	-0.00012
CGAGGCCC	-0.186
GGACAACC	-0.138
ATCCATGC	0.0231
CCAACGTA	0.0579
CCCTGAGA	-0.247
TGAAACAA	0.141
TACGCAGA	0.0959
AACCTCCG	-0.29
CGTAAGAC	0.0807
GCGTCCCA	-0.0692

Sequence	PBM E-score
AAAGCCCT	-0.115
TAGTATAA	0.18
ATCTGGGG	-0.256
CGAAGTAA	0.143
GCGATACA	-0.104
ATGGCCCC	-0.324
ACATCTGA	-0.232
ATATCAAT	0.289
CCGCGCTA	0.00083
ATCCTCTG	-0.0896
AATTGCAT	0.161
CTAGATAA	0.0735
ACGTGTAT	0.229
AACACTAG	-0.0628
ATACGGCA	0.394
ATGAGTTA	0.0635
ATACTAGA	0.209
TTCCAAAA	0.0844
CGCGGGTA	0.0365
AACGACTG	-0.0864
AGCTGCAT	0.0177
CACCTACG	0.189
AAATTTCC	0.00111
AGTAGGAT	-0.071
ACAAATGT	0.114

Sequence	PBM E-score
CAGCAAGG	-0.138
GAGGAAGA	-0.0614
GTTCCATA	-0.0948
CAGAATTA	0.0881
CAGTGGCA	0.00914
AGGGATGA	0.0692
AGTAGGGC	-0.0285
CCACCAGG	-0.342
ACCCTTTG	-0.145
CGTTTTAC	0.0669
AACGGGAT	-0.122
CTACGCCC	-0.173
CTATAAAC	0.0949
TAGTTCGA	0.0591
CAGTACGA	0.105
CTAGATTA	0.125
ACCGAAAC	0.0323
TCCAACGA	-0.00506
CTTAGGGC	-0.221
ATTGTGCC	0.116
CAAAGTCG	-0.101
AGTGGTAG	-0.139
GCGCGAAC	-0.0573
ATGGTAGG	-0.169
ACACGCTA	-0.148

Sequence	PBM E-score
GCGACTTA	-0.24
AGTCATGA	0.124
CTCCGTAC	-0.0438
CGATAAAG	0.0753
GACGTAGA	0.161
CAATGTAG	-0.254
AGGTCACC	0.0958
AGCCAGAG	-0.293
AGATCATG	0.137
ACGCCGGG	-0.254
ACCCAGCT	-0.238
CCTGTCTC	-0.318
AAGTGCAC	0.0174
AATAATAC	0.197
TACAGGCA	0.128
GTGTACAC	0.162
AGGGCATA	0.0409
CGTGTTAC	0.096
GTGAGTAA	0.0814
ATTAAATC	0.212
GTATAATA	0.288
ATTGATTA	0.308
ACGTCGCC	0.228
GTCCTAAA	0.0345
ACCGGGGG	-0.353

Sequence	PBM E-score
GAAATTGC	0.149
GGTTACAC	0.017
AAACCACG	-0.00602
CCCGAGAC	-0.189
ACCTGCAC	-0.0765
CATATCGC	0.068
GGGGGAAC	-0.43
CGGTGGTA	-0.213
GTAGGTCA	0.0527
GAGTTGGA	-0.0506
GACATCCA	0.0103
GCCAATCA	-0.176
GAGGCAGC	-0.201
CGCTAAGC	0.0541
AGGACTGA	-0.0524
AGTCATTA	0.0194
ACAGAGAC	-0.105
ACACTCGC	0.00886
GTATGGGA	-0.197
GGATCTCA	-0.146
CGTGATAC	0.089
AATGCGGC	0.266
CCTCCCTC	-0.162
GCAACTCC	-0.207
ATCAGATG	-0.0312

Sequence	PBM E-score
GAACCCAA	-0.141
ATTTGACG	0.292
ACTTAGGC	-0.205
ACCCCGTC	-0.348
CTGCCAAC	-0.229
GGCCCAAC	-0.169
GCTCTGAC	0.0346
ACCACATG	0.129
CCGGAACA	-0.0828
TAAATGAA	0.123
ACGGCCAG	-0.175
AAAGTCAA	0.0155
AGTTAAAC	0.159
AACCATGC	-0.0109
CTATCTAA	-0.129
GCAGGCAA	-0.0304
AGTCCAGG	-0.304
CAACCGCG	0.226
AACAAGAT	0.06

Reference: the supplement of paper PMC3334620
